Experimental data as given in the supplement of paper PMC4967469.
IC50 is the fitted dose that halves viability relative to control wells, and lower means more sensitive; where the fit passes the top or lowest dose, that dose stands as a limit. AUC sums up the same curve from the lowest dose to the 256-fold higher top dose; the more sensitive the line, the further below 1. For part of these data: The top dose, if marked as inferred, comes from the curve model; the source does not state it.

Assays:
Assay in all cases: Viability of human cancer cell lines after 72 h of drug (GDSC screen)
Vinorelbine = compound: CCC1=C[C@@H]2CN(C1)Cc1c([nH]c3ccccc13)[C@@](C(=O)OC)(c1cc3c(cc1OC)N(C)[C@H]1[C@@](O)(C(=O)OC)[C@H](OC(C)=O)[C@]4(CC)C=CCN5CC[C@]31[C@@H]54)C2 [Vinorelbine]; conditions: top dose 0.064 µM; top dose inferred
Protocol: (§1)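 Human cancer cell lines in 384-well plates, medium with 10% serum, drug for 72 h over a 256-fold dose range (nine 2-fold or five 4-fold steps up to the top dose). Adherent lines were fixed and stained with the nucleic acid dye Syto60, suspension lines read with resazurin; signal relative to control wells, capped at 0 and 100%. One two-parameter sigmoid per drug and line, fitted in a mixed model over all curves with the slope shared within a line.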

QL-XI-92 = compound: C=CC(=O)Nc1cc(NC(=O)c2ccc(C)c(NC(=O)c3ccno3)c2)cc(C(F)(F)F)c1 [QL-XI-92]; conditions: top dose 10.24 µM; top dose inferred
Protocol: as §1

S-Trityl-L-cysteine = compound: N[C@@H](CSC(c1ccccc1)(c1ccccc1)c1ccccc1)C(=O)O [S-Trityl-L-cysteine]; conditions: top dose 5.12 µM; top dose inferred
Protocol: as §1

NU-7441 = compound: O=c1cc(N2CCOCC2)oc2c(-c3cccc4c3sc3ccccc34)cccc12 [NU-7441]; conditions: top dose 2 µM; top dose inferred
Protocol: as §1

EHT 1864 = compound: O=c1cc(CN2CCOCC2)occ1OCCCCCSc1ccnc2cc(C(F)(F)F)ccc12 [EHT 1864]; conditions: top dose 10 µM; top dose inferred
Protocol: as §1

WHI-P97 = compound: COc1cc2ncnc(Nc3cc(Br)c(O)c(Br)c3)c2cc1OC [WHI-P97]; conditions: top dose 10.24 µM; top dose inferred
Protocol: as §1

XL-184 = compound: COc1cc2nccc(Oc3ccc(NC(=O)C4(C(=O)Nc5ccc(F)cc5)CC4)cc3)c2cc1OC [XL-184]; conditions: top dose 5.12 µM; top dose inferred
Protocol: as §1

Gefitinib = compound: COc1cc2ncnc(Nc3ccc(F)c(Cl)c3)c2cc1OCCCN1CCOCC1 [Gefitinib]; conditions: top dose 0.5 µM
Protocol: as §1

AG-014699 = compound: CNCc1ccc(-c2[nH]c3cc(F)cc4c3c2CCNC4=O)cc1 [AG-014699]; conditions: top dose 5 µM; top dose inferred
Protocol: as §1

Phenformin = compound: N=C(N)NC(=N)NCCc1ccccc1 [Phenformin]; conditions: top dose 4000 µM; top dose inferred
Protocol: as §1

| Cell Line | AUC (Vinorelbine) | IC50 (Vinorelbine) | AUC (QL-XI-92) | IC50 (QL-XI-92) | AUC (S-Trityl-L-cysteine) | IC50 (S-Trityl-L-cysteine) | AUC (NU-7441) | IC50 (NU-7441) | AUC (EHT 1864) | IC50 (EHT 1864) | AUC (WHI-P97) | IC50 (WHI-P97) | AUC (XL-184) | IC50 (XL-184) | AUC (Gefitinib) | IC50 (Gefitinib) | AUC (AG-014699) | IC50 (AG-014699) | AUC (Phenformin) | IC50 (Phenformin) |
| --- | --- | --- | --- | --- | --- | --- | --- | --- | --- | --- | --- | --- | --- | --- | --- | --- | --- | --- | --- | --- |
| A704 (kidney, adherent) | 0.987 | > 0.064 µM | 0.958 | > 10.2 µM | 0.985 | > 5.12 µM | 0.909 | > 2 µM | 0.972 | > 10 µM | 0.983 | > 10.2 µM | 0.929 | > 5.12 µM | 0.989 | > 0.5 µM |  |  |  |  |
| BB65-RCC (kidney, adherent) | 0.807 | 0.039 µM | 0.96 | > 10.2 µM | 0.781 | 2.46 µM |  |  | 0.949 | > 10 µM | 0.977 | > 10.2 µM | 0.924 | > 5.12 µM | 0.919 | > 0.5 µM | 0.96 | > 5 µM | 0.71 | 1080 µM |
| DB (B-cell lymphoma, suspension) | 0.64 | 0.0103 µM | 0.953 | > 10.2 µM | 0.889 | > 5.12 µM | 0.932 | > 2 µM |  |  | 0.956 | > 10.2 µM | 0.929 | > 5.12 µM | 0.965 | > 0.5 µM |  |  | 0.346 | 88.2 µM |
| DOHH-2 (B-cell lymphoma, suspension) | 0.592 | 0.00709 µM |  |  | 0.602 | 0.606 µM | 0.984 | > 2 µM |  |  |  |  |  |  | 0.854 | 0.382 µM |  |  |  |  |
| EHEB (lymphoid neoplasm, suspension) | 0.841 | > 0.064 µM |  |  | 0.85 | > 5.12 µM | 0.916 | > 2 µM | 0.978 | > 10 µM |  |  |  |  | 0.977 | > 0.5 µM | 0.959 | > 5 µM |  |  |
| IST-SL2 (small cell lung carcinoma, suspension) | 0.754 | 0.0213 µM | 0.764 | 3.68 µM | 0.746 | 1.61 µM | 0.985 | > 2 µM | 0.964 | > 10 µM |  |  |  |  | 0.977 | > 0.5 µM | 0.965 | > 5 µM | 0.986 | > 4000 µM |
| KASUMI-1 (acute myeloid leukaemia, suspension) | 0.717 | 0.0165 µM | 0.616 | 1.34 µM | 0.973 | > 5.12 µM |  |  | 0.934 | > 10 µM |  |  |  |  | 0.944 | > 0.5 µM | 0.959 | > 5 µM |  |  |
| KMS-12-BM (myeloma, suspension) | 0.618 | 0.00793 µM | 0.899 | 8.97 µM | 0.73 | 1.26 µM |  |  | 0.934 | > 10 µM | 0.967 | > 10.2 µM | 0.958 | > 5.12 µM | 0.985 | > 0.5 µM | 0.991 | > 5 µM | 0.656 | 623 µM |
| LB647-SCLC (small cell lung carcinoma, semi-adherent) | 0.584 | 0.00699 µM |  |  | 0.794 | 2.68 µM | 0.985 | > 2 µM | 0.985 | > 10 µM |  |  |  |  | 0.955 | > 0.5 µM | 0.985 | > 5 µM | 0.972 | > 4000 µM |
| LB2241-RCC (kidney, adherent) | 0.919 | > 0.064 µM | 0.984 | > 10.2 µM | 0.974 | > 5.12 µM |  |  | 0.901 | > 10 µM | 0.956 | > 10.2 µM | 0.969 | > 5.12 µM | 0.779 | 0.23 µM | 0.884 | > 5 µM | 0.896 | > 4000 µM |
| LS-123 (large intestine, adherent) | 0.966 | > 0.064 µM | 0.926 | > 10.2 µM | 0.964 | > 5.12 µM |  |  | 0.958 | > 10 µM | 0.967 | > 10.2 µM | 0.919 | > 5.12 µM | 0.98 | > 0.5 µM | 0.982 | > 5 µM | 0.82 | 3340 µM |
| MOLM-13 (acute myeloid leukaemia, suspension) | 0.568 | 0.00606 µM | 0.762 | 3.46 µM | 0.568 | 0.485 µM | 0.971 | > 2 µM | 0.965 | > 10 µM | 0.695 | 2.16 µM |  |  | 0.969 | > 0.5 µM | 0.903 | > 5 µM | 0.595 | 449 µM |
| MONO-MAC-6 (acute myeloid leukaemia, suspension) | 0.657 | 0.0112 µM | 0.957 | > 10.2 µM | 0.692 |  | 0.899 | > 2 µM | 0.908 | > 10 µM | 0.86 | 9.42 µM |  |  | 0.945 | > 0.5 µM | 0.974 | > 5 µM | 0.51 | 266 µM |
| MSTO-211H (mesothelioma, adherent) |  |  | 0.99 | > 10.2 µM | 0.977 | > 5.12 µM | 0.984 | > 2 µM | 0.991 | > 10 µM | 0.986 | > 10.2 µM | 0.988 | > 5.12 µM | 0.959 | > 0.5 µM | 0.991 | > 5 µM | 0.955 | > 4000 µM |
| MZ7-mel (melanoma, adherent) | 0.623 | 0.00881 µM | 0.985 | > 10.2 µM | 0.819 | 3.04 µM | 0.962 | > 2 µM | 0.947 | > 10 µM | 0.973 | > 10.2 µM | 0.936 | > 5.12 µM |  |  | 0.987 | > 5 µM | 0.358 | 99.4 µM |
| NB1 (neuroblastoma, semi-adherent) | 0.747 | 0.0223 µM | 0.934 | > 10.2 µM | 0.746 | 1.77 µM | 0.938 | > 2 µM | 0.877 | > 10 µM | 0.972 | > 10.2 µM | 0.937 | > 5.12 µM |  |  | 0.974 | > 5 µM | 0.8 | 2160 µM |
